The results in this text go back to PMC5575285.

Amino acid sequences for entries named in this document (tags omitted).
UniProt O94992: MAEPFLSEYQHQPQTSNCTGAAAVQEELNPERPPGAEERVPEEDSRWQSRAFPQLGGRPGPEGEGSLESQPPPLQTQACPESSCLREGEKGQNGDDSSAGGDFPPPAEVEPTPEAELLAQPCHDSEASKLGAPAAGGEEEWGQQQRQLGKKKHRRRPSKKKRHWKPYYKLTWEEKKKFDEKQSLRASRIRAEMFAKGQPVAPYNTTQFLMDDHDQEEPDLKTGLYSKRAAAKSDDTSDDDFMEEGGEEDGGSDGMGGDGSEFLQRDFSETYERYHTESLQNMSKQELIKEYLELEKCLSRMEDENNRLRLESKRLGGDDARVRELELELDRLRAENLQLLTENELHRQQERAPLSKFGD
UniProt P50750: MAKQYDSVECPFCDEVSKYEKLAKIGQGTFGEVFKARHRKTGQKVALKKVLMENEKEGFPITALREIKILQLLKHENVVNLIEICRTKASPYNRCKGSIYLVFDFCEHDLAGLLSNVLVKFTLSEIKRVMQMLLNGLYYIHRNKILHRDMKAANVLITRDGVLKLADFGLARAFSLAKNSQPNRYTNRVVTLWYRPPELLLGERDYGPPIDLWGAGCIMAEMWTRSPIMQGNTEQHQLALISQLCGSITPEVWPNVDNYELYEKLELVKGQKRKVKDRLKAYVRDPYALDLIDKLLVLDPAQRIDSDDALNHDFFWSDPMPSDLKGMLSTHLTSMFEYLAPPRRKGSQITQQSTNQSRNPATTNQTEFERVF
UniProt O60583: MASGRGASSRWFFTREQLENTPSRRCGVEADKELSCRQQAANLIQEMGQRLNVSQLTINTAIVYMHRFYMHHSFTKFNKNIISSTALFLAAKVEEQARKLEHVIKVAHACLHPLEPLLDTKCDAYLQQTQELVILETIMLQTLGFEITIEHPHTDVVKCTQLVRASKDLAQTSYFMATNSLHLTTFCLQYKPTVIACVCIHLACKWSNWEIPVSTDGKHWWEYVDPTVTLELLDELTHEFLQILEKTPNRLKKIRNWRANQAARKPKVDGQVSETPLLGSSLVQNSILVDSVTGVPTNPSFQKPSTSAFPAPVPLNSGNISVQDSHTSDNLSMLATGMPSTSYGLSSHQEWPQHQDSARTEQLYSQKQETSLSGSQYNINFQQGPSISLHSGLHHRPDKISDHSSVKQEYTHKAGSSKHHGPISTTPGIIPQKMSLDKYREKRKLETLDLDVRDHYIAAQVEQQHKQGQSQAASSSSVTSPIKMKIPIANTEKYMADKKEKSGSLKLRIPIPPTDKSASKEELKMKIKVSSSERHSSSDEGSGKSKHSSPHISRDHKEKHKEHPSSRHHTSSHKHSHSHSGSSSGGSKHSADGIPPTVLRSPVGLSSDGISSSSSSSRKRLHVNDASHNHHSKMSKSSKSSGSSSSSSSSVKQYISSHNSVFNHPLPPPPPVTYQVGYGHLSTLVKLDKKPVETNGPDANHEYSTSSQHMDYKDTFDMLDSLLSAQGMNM
UniProt O96028: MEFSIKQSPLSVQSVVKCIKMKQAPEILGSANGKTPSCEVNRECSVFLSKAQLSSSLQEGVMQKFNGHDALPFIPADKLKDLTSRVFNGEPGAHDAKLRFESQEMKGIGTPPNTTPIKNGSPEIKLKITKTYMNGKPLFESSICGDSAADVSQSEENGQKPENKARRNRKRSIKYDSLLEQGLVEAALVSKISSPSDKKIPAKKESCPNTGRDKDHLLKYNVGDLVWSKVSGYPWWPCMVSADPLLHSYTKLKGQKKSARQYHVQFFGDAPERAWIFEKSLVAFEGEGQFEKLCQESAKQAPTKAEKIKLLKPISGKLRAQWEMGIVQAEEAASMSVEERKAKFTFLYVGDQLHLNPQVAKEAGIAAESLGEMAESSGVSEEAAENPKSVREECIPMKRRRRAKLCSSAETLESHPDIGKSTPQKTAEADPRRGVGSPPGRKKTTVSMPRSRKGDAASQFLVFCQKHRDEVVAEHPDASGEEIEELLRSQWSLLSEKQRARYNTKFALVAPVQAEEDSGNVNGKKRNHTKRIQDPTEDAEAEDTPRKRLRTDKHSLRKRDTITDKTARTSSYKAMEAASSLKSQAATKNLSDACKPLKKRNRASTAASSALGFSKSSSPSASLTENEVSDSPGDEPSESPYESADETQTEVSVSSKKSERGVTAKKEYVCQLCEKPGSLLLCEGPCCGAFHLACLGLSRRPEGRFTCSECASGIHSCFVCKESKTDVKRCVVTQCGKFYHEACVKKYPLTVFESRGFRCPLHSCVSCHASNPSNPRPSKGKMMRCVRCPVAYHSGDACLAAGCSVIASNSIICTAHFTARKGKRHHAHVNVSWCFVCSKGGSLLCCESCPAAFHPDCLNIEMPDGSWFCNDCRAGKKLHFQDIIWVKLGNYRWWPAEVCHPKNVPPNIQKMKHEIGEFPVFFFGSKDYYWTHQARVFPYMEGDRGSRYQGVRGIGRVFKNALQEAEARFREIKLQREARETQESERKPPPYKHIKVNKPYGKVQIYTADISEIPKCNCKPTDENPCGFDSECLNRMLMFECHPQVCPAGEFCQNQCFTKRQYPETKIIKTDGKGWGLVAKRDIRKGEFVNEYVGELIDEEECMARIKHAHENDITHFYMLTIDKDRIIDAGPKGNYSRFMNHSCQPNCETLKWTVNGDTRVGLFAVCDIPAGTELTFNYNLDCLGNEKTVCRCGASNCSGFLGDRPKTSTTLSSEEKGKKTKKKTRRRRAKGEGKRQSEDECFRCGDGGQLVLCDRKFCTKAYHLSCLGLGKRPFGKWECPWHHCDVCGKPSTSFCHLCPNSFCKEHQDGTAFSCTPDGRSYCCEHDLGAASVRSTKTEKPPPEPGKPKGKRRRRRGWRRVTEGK
UniProt P49336: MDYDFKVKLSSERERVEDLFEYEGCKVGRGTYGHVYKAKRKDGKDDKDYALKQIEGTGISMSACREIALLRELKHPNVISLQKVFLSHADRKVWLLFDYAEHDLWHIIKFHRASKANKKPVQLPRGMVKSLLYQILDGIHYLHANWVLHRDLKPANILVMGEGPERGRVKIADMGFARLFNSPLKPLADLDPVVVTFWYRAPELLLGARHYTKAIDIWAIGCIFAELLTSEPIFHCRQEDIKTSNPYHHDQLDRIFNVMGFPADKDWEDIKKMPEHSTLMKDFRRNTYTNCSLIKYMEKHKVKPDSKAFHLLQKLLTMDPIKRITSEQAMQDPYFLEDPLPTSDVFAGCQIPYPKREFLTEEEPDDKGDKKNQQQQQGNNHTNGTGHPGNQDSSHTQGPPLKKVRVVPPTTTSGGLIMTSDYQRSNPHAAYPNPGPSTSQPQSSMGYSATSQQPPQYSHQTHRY
UniProt Q15291: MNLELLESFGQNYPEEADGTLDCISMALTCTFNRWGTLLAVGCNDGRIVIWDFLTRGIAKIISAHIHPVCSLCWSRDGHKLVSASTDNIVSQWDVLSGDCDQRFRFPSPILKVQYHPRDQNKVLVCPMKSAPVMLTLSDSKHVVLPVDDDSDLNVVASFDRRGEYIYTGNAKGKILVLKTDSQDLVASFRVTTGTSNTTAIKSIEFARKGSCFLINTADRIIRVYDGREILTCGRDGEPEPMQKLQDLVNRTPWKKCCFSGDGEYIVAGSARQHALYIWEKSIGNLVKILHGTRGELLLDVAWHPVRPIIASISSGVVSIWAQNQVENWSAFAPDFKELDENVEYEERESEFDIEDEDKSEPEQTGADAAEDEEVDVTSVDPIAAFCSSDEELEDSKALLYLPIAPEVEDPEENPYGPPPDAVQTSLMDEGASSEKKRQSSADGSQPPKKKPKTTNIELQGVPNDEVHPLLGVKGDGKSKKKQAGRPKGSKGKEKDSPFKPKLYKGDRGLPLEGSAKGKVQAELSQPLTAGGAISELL

Results are given in words; binding and its absence hold for the method and conditions named. In cells and extracts the contact can be indirect. Some results given as binding are weak or reduced against the parent protein; the word gives no strength. For part of these data: Sequences can lack the tags named with a protein.

B1: AFF4 (endogenous, HUVEC) (protein, UniProt Q9UHB7 1-1163)
chain: MNREDRNVLRMKERERRNQEIQQGEDAFPPSSPLFAEPYKVTSKEDKLSSRIQSMLGNYDEMKDFIGDRSIPKLVAIPKPTVPPSADEKSNPNFFEQRHGGSHQSSKWTPVGPAPSTSQSQKRSSGLQSGHSSQRTSAGSSSGTNSSGQRHDRESYNNSGSSSRKKGQHGSEHSKSRSSSPGKPQAVSSLNSSHSRSHGNDHHSKEHQRSKSPRDPDANWDSPSRVPFSSGQHSTQSFPPSLMSKSNSMLQKPTAYVRPMDGQESMEPKLSSEHYSSQSHGNSMTELKPSSKAHLTKLKIPSQPLDASASGDVSCVDEILKEMTHSWPPPLTAIHTPCKTEPSKFPFPTKESQQSNFGTGEQKRYNPSKTSNGHQSKSMLKDDLKLSSSEDSDGEQDCDKTMPRSTPGSNSEPSHHNSEGADNSRDDSSSHSGSESSSGSDSESESSSSDSEANEPSQSASPEPEPPPTNKWQLDNWLNKVNPHKVSPASSVDSNIPSSQGYKKEGREQGTGNSYTDTSGPKETSSATPGRDSKTIQKGSESGRGRQKSPAQSDSTTQRRTVGKKQPKKAEKAAAEEPRGGLKIESETPVDLASSMPSSRHKAATKGSRKPNIKKESKSSPRPTAEKKKYKSTSKSSQKSREIIETDTSSSDSDESESLPPSSQTPKYPESNRTPVKPSSVEEEDSFFRQRMFSPMEEKELLSPLSEPDDRYPLIVKIDLNLLTRIPGKPYKETEPPKGEKKNVPEKHTREAQKQASEKVSNKGKRKHKNEDDNRASESKKPKTEDKNSAGHKPSSNRESSKQSAAKEKDLLPSPAGPVPSKDPKTEHGSRKRTISQSSSLKSSSNSNKETSGSSKNSSSTSKQKKTEGKTSSSSKEVKEKAPSSSSNCPPSAPTLDSSKPRRTKLVFDDRNYSADHYLQEAKKLKHNADALSDRFEKAVYYLDAVVSFIECGNALEKNAQESKSPFPMYSETVDLIKYTMKLKNYLAPDATAADKRLTVLCLRCESLLYLRLFKLKKENALKYSKTLTEHLKNSYNNSQAPSPGLGSKAVGMPSPVSPKLSPGNSGNYSSGASSASASGSSVTIPQKIHQMAASYVQVTSNFLYATEIWDQAEQLSKEQKEFFAELDKVMGPLIFNASIMTDLVRYTRQGLHWLRQDAKLIS
B2: LARP7 (endogenous, HUVEC) (protein, UniProt Q4G0J3 1-582)
chain: METESGNQEKVMEEESTEKKKEVEKKKRSRVKQVLADIAKQVDFWFGDANLHKDRFLREQIEKSRDGYVDISLLVSFNKMKKLTTDGKLIARALRSSAVVELDLEGTRIRRKKPLGERPKDEDERTVYVELLPKNVNHSWIERVFGKCGNVVYISIPHYKSTGDPKGFAFVEFETKEQAAKAIEFLNNPPEEAPRKPGIFPKTVKNKPIPALRVVEEKKKKKKKKGRMKKEDNIQAKEENMDTSNTSISKMKRSRPTSEGSDIESTEPQKQCSKKKKKRDRVEASSLPEVRTGKRKRSSSEDAESLAPRSKVKKIIQKDIIKEASEASKENRDIEISTEEEKDTGDLKDSSLLKTKRKHKKKHKERHKMGEEVIPLRVLSKSEWMDLKKEYLALQKASMASLKKTISQIKSESEMETDSGVPQNTGMKNEKTANREECRTQEKVNATGPQFVSGVIVKIISTEPLPGRKQVRDTLAAISEVLYVDLLEGDTECHARFKTPEDAQAVINAYTEINKKHCWKLEILSGDHEQRYWQKILVDRQAKLNQPREKKRGTEKLITKAEKIRLAKTQQASKHIRFSEYD

One assay has as its target T1, ETS1 (endogenous, HUVEC) (human (endogenous in HUVEC)) (UniProt P14921).
T1 sequence: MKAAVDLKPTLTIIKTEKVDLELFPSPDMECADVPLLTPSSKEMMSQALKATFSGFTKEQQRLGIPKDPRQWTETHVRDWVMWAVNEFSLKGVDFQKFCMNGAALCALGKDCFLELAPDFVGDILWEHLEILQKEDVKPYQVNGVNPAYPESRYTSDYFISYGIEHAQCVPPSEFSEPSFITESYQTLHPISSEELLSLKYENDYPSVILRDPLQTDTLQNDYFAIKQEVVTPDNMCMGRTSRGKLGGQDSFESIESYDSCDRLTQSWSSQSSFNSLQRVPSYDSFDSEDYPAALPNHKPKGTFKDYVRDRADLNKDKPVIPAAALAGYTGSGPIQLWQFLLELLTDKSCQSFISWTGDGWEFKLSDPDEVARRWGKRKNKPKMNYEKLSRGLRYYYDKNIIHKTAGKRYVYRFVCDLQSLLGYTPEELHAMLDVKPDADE
In words: co-IP; HUVEC nuclear extract; endogenous ETS1 precipitated with specific antibody and Protein G Dynal beads; endogenous partners detected by immunoblot; also after VEGF for the indicated times, with or without ERK inhibitor PD598059. (Immunoblotting shows a protein as a band on a membrane.)
Take “HEXIM1 (endogenous, HUVEC) (from UniProt O94992 1-359)”: the binding entry is listed as “no binding”.
On to “CDK9 (endogenous, HUVEC) (from UniProt P50750 1-372)”, for which the binding result is “binds”.
On to B1, for which the binding entry was “binds”.
Turning to B2, the binding result was “no binding”.

The target of another assay is T2, Flag-ETS1 (UniProt P14921).
T2 sequence: T1 sequence
In words: co-IP; 293T cells co-transfected with expression constructs (with or without CBP); total protein in IP buffer (20 mM Tris-Cl pH 8, 150 mM NaCl, 1% NP-40, 1 mM EDTA, DNaseI, 10 mM sodium butyrate); FLAG-tagged ETS1 or ETS1 NT precipitated with M2 Flag antibody magnetic beads overnight at 4 °C; partners detected with HA or V5 antibodies.
Regarding “CCNT2 (tagged, 293T) (from UniProt O60583 1-730)”, the binding entry is listed as “binds”.
For the molecule “CDK9 (tagged, 293T) (from UniProt P50750 1-372)”, the binding result is listed as “binds”.
Regarding “WHSC1 (tagged, 293T) (from UniProt O96028 1-1365)”, the binding result was “no binding”.
Consider “CDK8 (tagged, 293T) (from UniProt P49336 1-464)”, for which the binding result was “no binding”.
For the molecule “RbBP5 (tagged, 293T) (from UniProt Q15291 1-538)”, the binding entry is given as “no binding”.
